Laboratory results: the supplement of paper PMC12067093, “Discovery and optimisation of a covalent ligand for TRIM25 and its application to targeted protein ubiquitination” (Chemical Science, 2025)
About 21,000 targets were measured; listed, in parts, are those with the largest changes and a random draw of the rest.

Compound: Cc1cc(ccc1-c1ccccc1)C(=O)N1CCCN(CC1)C(=O)CCl [compound 10]
Test: probe-labelled cysteine peptide fold change vs DMSO (competition) (log2 fold change); higher = less target engagement (more negative = stronger competition)
Conditions: THP-1, incubation time: 4 h
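Also: competitive profiling in live THP-1 cells: cysteine peptides tagged with an iodoacetamide desthiobiotin (IA-DTB) probe, intensity after compound treatment relative to DMSO-treated cells.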

Chain of UniProt Q9P2R7 (Q9P2R7 whole entry, looked up): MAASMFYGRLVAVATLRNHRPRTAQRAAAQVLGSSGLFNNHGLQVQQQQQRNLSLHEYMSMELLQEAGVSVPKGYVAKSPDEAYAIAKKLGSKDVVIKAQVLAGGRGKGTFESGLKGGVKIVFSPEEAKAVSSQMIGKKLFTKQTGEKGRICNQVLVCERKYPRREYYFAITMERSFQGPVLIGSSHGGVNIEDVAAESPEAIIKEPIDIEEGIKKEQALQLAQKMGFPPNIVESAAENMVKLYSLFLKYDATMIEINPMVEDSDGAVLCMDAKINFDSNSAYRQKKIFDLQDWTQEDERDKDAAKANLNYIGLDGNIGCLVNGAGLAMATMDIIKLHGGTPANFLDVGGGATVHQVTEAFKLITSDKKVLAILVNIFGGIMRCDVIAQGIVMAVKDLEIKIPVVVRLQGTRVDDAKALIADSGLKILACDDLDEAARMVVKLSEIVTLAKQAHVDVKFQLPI
Chain of UniProt Q9Y3F4 (Q9Y3F4 whole entry, looked up): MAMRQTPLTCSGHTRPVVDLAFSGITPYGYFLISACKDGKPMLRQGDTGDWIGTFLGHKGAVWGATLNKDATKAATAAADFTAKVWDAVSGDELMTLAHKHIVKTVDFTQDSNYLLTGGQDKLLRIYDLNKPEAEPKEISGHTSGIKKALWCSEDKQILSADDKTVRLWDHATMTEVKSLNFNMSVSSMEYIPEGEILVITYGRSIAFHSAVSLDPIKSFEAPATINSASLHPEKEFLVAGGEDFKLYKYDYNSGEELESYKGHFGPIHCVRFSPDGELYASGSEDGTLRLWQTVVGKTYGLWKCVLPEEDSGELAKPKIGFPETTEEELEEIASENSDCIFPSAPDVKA
Chain of UniProt Q92544 (Q92544 whole entry, looked up): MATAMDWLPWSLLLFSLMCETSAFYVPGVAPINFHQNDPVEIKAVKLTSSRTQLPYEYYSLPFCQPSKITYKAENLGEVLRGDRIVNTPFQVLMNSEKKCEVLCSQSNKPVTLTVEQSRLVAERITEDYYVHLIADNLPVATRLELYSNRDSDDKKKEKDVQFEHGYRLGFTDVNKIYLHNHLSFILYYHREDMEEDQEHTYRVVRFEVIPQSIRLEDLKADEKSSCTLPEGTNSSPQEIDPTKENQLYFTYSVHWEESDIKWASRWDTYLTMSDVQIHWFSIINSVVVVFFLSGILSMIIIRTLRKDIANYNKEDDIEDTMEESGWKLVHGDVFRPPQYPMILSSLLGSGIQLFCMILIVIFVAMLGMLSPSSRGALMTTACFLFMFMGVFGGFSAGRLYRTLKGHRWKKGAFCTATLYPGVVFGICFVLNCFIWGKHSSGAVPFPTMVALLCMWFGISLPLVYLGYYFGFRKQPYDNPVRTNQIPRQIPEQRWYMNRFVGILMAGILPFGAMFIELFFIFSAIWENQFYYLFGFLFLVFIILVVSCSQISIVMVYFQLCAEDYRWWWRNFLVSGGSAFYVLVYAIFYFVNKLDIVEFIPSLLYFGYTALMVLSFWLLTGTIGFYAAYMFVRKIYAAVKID
Chain of UniProt Q8N5C6 (Q8N5C6 whole entry, looked up): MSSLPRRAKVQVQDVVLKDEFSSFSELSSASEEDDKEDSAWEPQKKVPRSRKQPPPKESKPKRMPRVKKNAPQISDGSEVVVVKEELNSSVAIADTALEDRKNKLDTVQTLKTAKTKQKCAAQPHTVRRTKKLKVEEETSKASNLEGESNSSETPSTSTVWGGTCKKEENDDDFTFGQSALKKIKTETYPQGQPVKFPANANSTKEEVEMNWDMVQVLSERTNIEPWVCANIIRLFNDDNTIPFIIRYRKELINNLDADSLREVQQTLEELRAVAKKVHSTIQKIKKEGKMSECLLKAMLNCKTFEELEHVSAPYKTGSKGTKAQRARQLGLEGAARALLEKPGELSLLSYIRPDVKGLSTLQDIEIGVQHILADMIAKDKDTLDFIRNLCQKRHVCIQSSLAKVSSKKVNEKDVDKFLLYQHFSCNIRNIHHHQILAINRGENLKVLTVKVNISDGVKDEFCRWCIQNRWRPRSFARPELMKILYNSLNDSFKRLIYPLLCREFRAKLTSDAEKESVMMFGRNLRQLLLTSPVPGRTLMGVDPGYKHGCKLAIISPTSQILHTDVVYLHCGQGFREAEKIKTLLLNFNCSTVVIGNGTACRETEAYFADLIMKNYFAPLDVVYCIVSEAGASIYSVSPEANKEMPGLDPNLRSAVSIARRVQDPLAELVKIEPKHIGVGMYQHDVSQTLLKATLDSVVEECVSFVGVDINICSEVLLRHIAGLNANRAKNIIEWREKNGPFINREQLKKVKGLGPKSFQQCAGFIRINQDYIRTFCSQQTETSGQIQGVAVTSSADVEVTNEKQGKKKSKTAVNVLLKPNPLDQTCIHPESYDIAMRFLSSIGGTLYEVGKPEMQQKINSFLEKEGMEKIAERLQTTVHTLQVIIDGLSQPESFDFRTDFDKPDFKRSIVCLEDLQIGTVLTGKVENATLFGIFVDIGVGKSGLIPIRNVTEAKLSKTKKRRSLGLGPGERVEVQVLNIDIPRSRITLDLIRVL
Chain of UniProt O96008 (O96008 whole entry, looked up): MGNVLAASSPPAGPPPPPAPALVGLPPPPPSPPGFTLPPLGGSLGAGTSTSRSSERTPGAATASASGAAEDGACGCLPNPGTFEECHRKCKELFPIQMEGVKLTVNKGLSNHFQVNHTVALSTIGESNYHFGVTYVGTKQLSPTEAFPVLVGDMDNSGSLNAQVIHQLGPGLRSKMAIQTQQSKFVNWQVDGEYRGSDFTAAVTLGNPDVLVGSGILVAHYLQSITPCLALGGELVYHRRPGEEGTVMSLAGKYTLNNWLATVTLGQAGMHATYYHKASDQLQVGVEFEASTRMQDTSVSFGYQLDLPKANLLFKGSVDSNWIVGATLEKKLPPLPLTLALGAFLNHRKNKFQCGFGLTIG
Chain of UniProt Q9H5Q4 (Q9H5Q4 whole entry, looked up): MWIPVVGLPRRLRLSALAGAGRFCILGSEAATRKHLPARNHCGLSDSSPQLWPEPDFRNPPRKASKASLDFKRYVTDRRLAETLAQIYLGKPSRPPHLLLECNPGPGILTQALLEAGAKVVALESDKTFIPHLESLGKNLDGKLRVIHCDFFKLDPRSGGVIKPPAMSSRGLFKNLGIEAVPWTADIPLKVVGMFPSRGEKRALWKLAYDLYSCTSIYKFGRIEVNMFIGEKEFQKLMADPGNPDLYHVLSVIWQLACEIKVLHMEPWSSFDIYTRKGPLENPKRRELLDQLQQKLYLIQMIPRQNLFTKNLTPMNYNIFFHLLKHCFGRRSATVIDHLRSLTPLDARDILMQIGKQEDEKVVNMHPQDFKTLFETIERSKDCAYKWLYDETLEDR
Chain of UniProt Q9NXH8 (Q9NXH8 whole entry, looked up): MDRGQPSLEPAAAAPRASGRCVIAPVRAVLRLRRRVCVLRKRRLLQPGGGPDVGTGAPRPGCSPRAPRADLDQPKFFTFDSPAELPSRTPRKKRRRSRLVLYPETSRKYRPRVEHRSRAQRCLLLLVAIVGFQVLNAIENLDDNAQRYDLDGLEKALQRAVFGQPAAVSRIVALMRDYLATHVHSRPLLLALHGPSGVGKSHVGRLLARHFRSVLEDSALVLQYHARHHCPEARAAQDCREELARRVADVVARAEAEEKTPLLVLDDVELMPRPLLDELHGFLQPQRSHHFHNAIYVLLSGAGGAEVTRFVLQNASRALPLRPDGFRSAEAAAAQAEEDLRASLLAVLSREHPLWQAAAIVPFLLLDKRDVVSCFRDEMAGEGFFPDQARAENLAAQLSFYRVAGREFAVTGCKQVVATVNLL
Chain of UniProt O76094 (O76094 whole entry, looked up): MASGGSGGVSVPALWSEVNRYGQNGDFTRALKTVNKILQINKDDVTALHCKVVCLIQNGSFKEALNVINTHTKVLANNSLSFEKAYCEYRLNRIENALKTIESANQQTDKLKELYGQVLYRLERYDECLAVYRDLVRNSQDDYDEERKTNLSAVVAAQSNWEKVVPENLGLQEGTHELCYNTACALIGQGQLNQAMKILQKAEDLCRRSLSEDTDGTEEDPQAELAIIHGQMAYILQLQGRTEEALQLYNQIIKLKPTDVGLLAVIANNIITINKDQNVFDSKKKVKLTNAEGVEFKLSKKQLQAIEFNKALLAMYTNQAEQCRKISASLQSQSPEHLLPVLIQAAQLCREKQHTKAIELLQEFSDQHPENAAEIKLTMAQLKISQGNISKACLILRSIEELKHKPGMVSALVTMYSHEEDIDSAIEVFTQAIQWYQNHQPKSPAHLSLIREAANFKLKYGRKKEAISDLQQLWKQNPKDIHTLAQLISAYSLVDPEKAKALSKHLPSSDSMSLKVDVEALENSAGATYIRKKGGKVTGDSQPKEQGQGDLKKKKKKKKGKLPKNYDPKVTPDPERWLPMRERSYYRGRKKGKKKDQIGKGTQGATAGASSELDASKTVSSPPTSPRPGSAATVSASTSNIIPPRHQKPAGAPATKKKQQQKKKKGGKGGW
Chain of UniProt P42167 (P42167 whole entry, looked up): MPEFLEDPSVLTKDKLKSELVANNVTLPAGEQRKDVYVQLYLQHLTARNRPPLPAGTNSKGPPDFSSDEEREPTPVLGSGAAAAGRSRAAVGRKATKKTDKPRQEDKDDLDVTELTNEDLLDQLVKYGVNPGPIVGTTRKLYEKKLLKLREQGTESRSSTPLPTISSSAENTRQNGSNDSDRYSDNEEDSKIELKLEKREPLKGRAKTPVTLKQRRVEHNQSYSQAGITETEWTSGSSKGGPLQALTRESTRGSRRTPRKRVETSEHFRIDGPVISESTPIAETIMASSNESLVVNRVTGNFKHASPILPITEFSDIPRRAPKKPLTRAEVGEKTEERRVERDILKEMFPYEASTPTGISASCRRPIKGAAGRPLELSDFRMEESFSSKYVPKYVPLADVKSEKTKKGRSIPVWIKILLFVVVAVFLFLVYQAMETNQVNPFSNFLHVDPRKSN
Chain of UniProt Q9BYN0 (Q9BYN0 whole entry): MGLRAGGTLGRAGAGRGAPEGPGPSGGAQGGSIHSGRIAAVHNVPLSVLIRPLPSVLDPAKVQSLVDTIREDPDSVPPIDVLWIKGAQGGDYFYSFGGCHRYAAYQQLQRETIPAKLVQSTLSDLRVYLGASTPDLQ

Target	probe-labelled cysteine peptide fold change (10 µM)	probe-labelled cysteine peptide fold change (50 µM)
TKFC_Q3LXA3_13+24_LVNSVAGCADDALAGLVACNPNLQLLQGHR (UniProt Q3LXA3)	0.2	0.273
TCEAL5_Q5H9L2_149_ECGDVSR<|>TCEAL6_Q6IPX3_143_ECGDVSR (UniProt Q6IPX3+Q5H9L2)	-0.0207	-0.39
TEC_P42680_74_NDDGVIPCQNK (UniProt P42680)	-0.152	0.00627
STRAP_Q9Y3F4_305_CVLPEEDSGELAKPK (UniProt Q9Y3F4)	0.162	-0.46
TMPO_P42167_363_EMFPYEASTPTGISASCR (UniProt P42167)	-0.0695	-0.103
TBC1D1_Q86TI0_676_ACDSSSR (UniProt Q86TI0)	-0.0589	1.07
TOP2B_Q02880_476_HSLECTLILTEGDSAK (UniProt Q02880)	0.18	0.129
SRP72_O76094_179_VVPENLGLQEGTHELCYNTACALIGQGQLNQAMK (UniProt O76094)	0.394	0.0292
TOP2B_Q02880_1018+1029_LQTTLTCNSMVLFDHMGCLK (UniProt Q02880)	0.0431	0.21
TNS3_Q68CZ2_1241_HFLIECTPK (UniProt Q68CZ2)	-0.174	-1.35
TOR4A_Q9NXH8_374_DVVSCFRDEMAGEGFFPDQAR (UniProt Q9NXH8)	0.0302	0.101
TANGO6_Q9C0B7_537_AVPSLHSLCQFR (UniProt Q9C0B7)	-0.0489	0.382
TM9SF1_O15321_107_ILCHMQLSSAQVEQLR (UniProt O15321)	0.128	0.161
SRPK1_Q96SB4_647_RATAAECLR (UniProt Q96SB4)	0.323	1.08
TAB1_Q15750_235_QVGIICGQESTR (UniProt Q15750)	0.111	0.171
SON_P18583_1551_EMEHNTVCAAGTSPVGEIGEEK (UniProt P18583)	-0.31	-0.236
SUCLA2_Q9P2R7_152+158_ICNQVLVCER (UniProt Q9P2R7)	0.0845	-0.0221
TEPSIN_Q96N21_302_ALCAIASLGSSDLLPQEHILLR (UniProt Q96N21)	0.126	-0.793
TBRG4_Q969Z0_191_HLAFLAESCATLSQEQHSQELLAELLTHLER (UniProt Q969Z0)	-0.0116	0.027

Target	probe-labelled cysteine peptide fold change (10 µM)	probe-labelled cysteine peptide fold change (50 µM)
SNX6_Q9UNH7_149_KTVAMHEVFLCR (UniProt Q9UNH7)	-0.457	-1.64
SRBD1_Q8N5C6_294_MSECLLK (UniProt Q8N5C6)	-0.808	-1.34
TES_Q9UGI8_196_SEALGVGDVKLPCEMDAQGPK (UniProt Q9UGI8)	-0.45	-1.06
SRXN1_Q9BYN0_99_GAQGGDYFYSFGGCHR (UniProt Q9BYN0)	1.08	0.175
TBL1X_O60907_238_GHESEVFICAWNPVSDLLASGSGDSTAR<|>TBL1Y_Q9BZK7_185_GHESEVFICAWNPVSDLLASGSGDSTAR (UniProt Q9BZK7+O60907)	0.343	0.127
SNX7_Q9UNH6_325_KADTDLLPEEIGKLEDKVECANNALK (UniProt Q9UNH6)	-0.516	-1.95
TM9SF4_Q92544_104_KCEVLCSQSNKPVTLTVEQSR (UniProt Q92544)	0.0199	-0.291
TANGO6_Q9C0B7_15_QAVGSGAQETCGLDR (UniProt Q9C0B7)	-0.228	-1.05
STAG2_Q8N3U4_308_AICIEEIGIWMK (UniProt Q8N3U4)	0.294	0.678
TFB2M_Q9H5Q4_102_PSRPPHLLLECNPGPGILTQALLEAGAK (UniProt Q9H5Q4)	-0.0999	-0.0748
TNIP1_Q15025_171_LETTLSVCAEEPDHGQLFTHLGR (UniProt Q15025)	-0.191	-0.111
THBS4_P35443_925_LGVFCFSQENIIWSNLK (UniProt P35443)	-0.755	-0.5
TARS_P26639_343_DQELYFFHELSPGSCFFLPK (UniProt P26639)	-0.0434	0.0997
THOC6_Q86W42_35_LHMTIFSQSVSPCGK (UniProt Q86W42)	-0.286	-1.43
THEMIS2_Q5TEJ8_453_YSLADLTAQFSLPCEVK (UniProt Q5TEJ8)	-0.04	-0.143
TACC3_Q9Y6A5_242_HGGVCAPAAVATSPPGAIPK (UniProt Q9Y6A5)	-0.111	-0.0794
TOMM40_O96008_74+76_TPGAATASASGAAEDGACGCLPNPGTFEECHRK (UniProt O96008)	-0.254	-1.45
SUPT6H_Q7KZ85_1265_VGMTVHCR (UniProt Q7KZ85)	-0.0261	-0.222
